Laboratory results as given in paper PMC6863843.
Results are given in words; binding and its absence hold for the method and conditions named. In cells and extracts the contact can be indirect. Some binding calls cover weakened binding; strength is not graded here. Sequences can lack the tags named with a protein. Blank lines part the entries; values can stand above or below the binder they belong to.

How the values were obtained:
[1] = biological target: EGFP-tagged Shank3a (pEGFP-C1-mShank3a) (mouse) (UniProt Q4ACU6); experiment: co-IP; HEK293T cells transfected with the indicated plasmids, 48 h; lysis in 20 mM Tris pH 7.4, 1.0% Triton X-100, 0.1% SDS, 150 mM NaCl, 10% glycerol; 1 μg antibody overnight at 4 °C, protein A-Sepharose; immunoblot; input 5%
[2] = biological target: T1, Shank3a PDZ domain (pEGFP-C1-Shank3a PDZ), aa 556-663 (mouse) (UniProt Q4ACU6); experiment: as above
T1 sequence: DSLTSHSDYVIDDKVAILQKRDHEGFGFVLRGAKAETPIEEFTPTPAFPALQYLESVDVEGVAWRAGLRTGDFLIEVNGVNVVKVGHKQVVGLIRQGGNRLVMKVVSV

binding [1]: no binding
B1: HA-tagged human Slitrk5 (pDisplay-HA-hSlitrk5) (protein, UniProt O94991 41-958)
chain: IDYYGEICDNACPCEEKDGILTVSCENRGIISLSEISPPRFPIYHLLLSGNLLNRLYPNEFVNYTGASILHLGSNVIQDIETGAFHGLRGLRRLHLNNNKLELLRDDTFLGLENLEYLQVDYNYISVIEPNAFGKLHLLQVLILNDNLLSSLPNNLFRFVPLTHLDLRGNRLKLLPYVGLLQHMDKVVELQLEENPWNCSCELISLKDWLDSISYSALVGDVVCETPFRLHGRDLDEVSKQELCPRRLISDYEMRPQTPLSTTGYLHTTPASVNSVATSSSAVYKPPLKPPKGTRQPNKPRVRPTSRQPSKDLGYSNYGPSIAYQTKSPVPLECPTACSCNLQISDLGLNVNCQERKIESIAELQPKPYNPKKMYLTENYIAVVRRTDFLEATGLDLLHLGNNRISMIQDRAFGDLTNLRRLYLNGNRIERLSPELFYGLQSLQYLFLQYNLIREIQSGTFDPVPNLQLLFLNNNLLQAMPSGVFSGLTLLRLNLRSNHFTSLPVSGVLDQLKSLIQIDLHDNPWDCTCDIVGMKLWVEQLKVGVLVDEVICKAPKKFAETDMRSIKSELLCPDYSDVVVSTPTPSSIQVPARTSAVTPAVRLNSTGAPASLGAGGGASSVPLSVLILSLLLVFIMSVFVAAGLFVLVMKRRKKNQSDHTSTNNSDVSSFNMQYSVYGGGGGTGGHPHAHVHHRGPALPKVKTPAGHVYEYIPHPLGHMCKNPIYRSREGNSVEDYKDLHELKVTYSSNHHLQQQQQPPPPPQQPQQQPPPQLQLQPGEEERRESHHLRSPAYSVSTIEPREDLLSPVQDADRFYRGILEPDKHCSTTPAGNSLPEYPKFPCSPAAYTFSPNYDLRRPHQYLHPGAGDSRLREPVLYSPPSAVFVEPNRNEYLELKAKLNVEPDYLEVLEKQTTFSQF

binding [1]: no binding
B2: HA-tagged human Slitrk4 (pDisplay-HA-hSlitrk4) (protein, UniProt Q8IW52 19-837)
chain: DSDISVEICNVCSCVSVENVLYVNCEKVSVYRPNQLKPPWSNFYHLNFQNNFLNILYPNTFLNFSHAVSLHLGNNKLQNIEGGAFLGLSALKQLHLNNNELKILRADTFLGIENLEYLQADYNLIKYIERGAFNKLHKLKVLILNDNLISFLPDNIFRFASLTHLDIRGNRIQKLPYIGVLEHIGRVVELQLEDNPWNCSCDLLPLKAWLENMPYNIYIGEAICETPSDLYGRLLKETNKQELCPMGTGSDFDVRILPPSQLENGYTTPNGHTTQTSLHRLVTKPPKTTNPSKISGIVAGKALSNRNLSQIVSYQTRVPPLTPCPAPCFCKTHPSDLGLSVNCQEKNIQSMSELIPKPLNAKKLHVNGNSIKDVDVSDFTDFEGLDLLHLGSNQITVIKGDVFHNLTNLRRLYLNGNQIERLYPEIFSGLHNLQYLYLEYNLIKEISAGTFDSMPNLQLLYLNNNLLKSLPVYIFSGAPLARLNLRNNKFMYLPVSGVLDQLQSLTQIDLEGNPWDCTCDLVALKLWVEKLSDGIVVKELKCETPVQFANIELKSLKNEILCPKLLNKPSAPFTSPAPAITFTTPLGPIRSPPGGPVPLSILILSILVVLILTVFVAFCLLVFVLRRNKKPTVKHEGLGNPDCGSMQLQLRKHDHKTNKKDGLSTEAFIPQTIEQMSKSHTCGLKESETGFMFSDPPGQKVVMRNVADKEKDLLHVDTRKRLSTIDELDELFPSRDSNVFIQNFLESKKEYNSIGVSGFEIRYPEKQPDKKSKKSLIGGNHSKIVVEQRKSEYFELKAKLQSSPDYLQVLEEQTALNKI

binding [1]: no binding
B3: HA-tagged human Slitrk3 (pDisplay-HA-hSlitrk3) (protein, UniProt O94933 27-977)
chain: WTTPIPLIEDSEEIDEPCFDPCYCEVKESLFHIHCDSKGFTNISQITEFWSRPFKLYLQRNSMRKLYTNSFLHLNNAVSINLGNNALQDIQTGAFNGLKILKRLYLHENKLDVFRNDTFLGLESLEYLQADYNVIKRIESGAFRNLSKLRVLILNDNLIPMLPTNLFKAVSLTHLDLRGNRLKVLFYRGMLDHIGRSLMELQLEENPWNCTCEIVQLKSWLERIPYTALVGDITCETPFHFHGKDLREIRKTELCPLLSDSEVEASLGIPHSSSSKENAWPTKPSSMLSSVHFTASSVEYKSSNKQPKPTKQPRTPRPPSTSQALYPGPNQPPIAPYQTRPPIPIICPTGCTCNLHINDLGLTVNCKERGFNNISELLPRPLNAKKLYLSSNLIQKIYRSDFWNFSSLDLLHLGNNRISYVQDGAFINLPNLKSLFLNGNDIEKLTPGMFRGLQSLHYLYFEFNVIREIQPAAFSLMPNLKLLFLNNNLLRTLPTDAFAGTSLARLNLRKNYFLYLPVAGVLEHLNAIVQIDLNENPWDCTCDLVPFKQWIETISSVSVVGDVLCRSPENLTHRDVRTIELEVLCPEMLHVAPAGESPAQPGDSHLIGAPTSASPYEFSPPGGPVPLSVLILSLLVLFFSAVFVAAGLFAYVLRRRRKKLPFRSKRQEGVDLTGIQMQCHRLFEDGGGGGGGSGGGGRPTLSSPEKAPPVGHVYEYIPHPVTQMCNNPIYKPREEEEVAVSSAQEAGSAERGGPGTQPPGMGEALLGSEQFAETPKENHSNYRTLLEKEKEWALAVSSSQLNTIVTVNHHHPHHPAVGGVSGVVGGTGGDLAGFRHHEKNGGVVLFPPGGGCGSGSMLLDRERPQPAPCTVGFVDCLYGTVPKLKELHVHPPGMQYPDLQQDARLKETLLFSAGKGFTDHQTQKSDYLELRAKLQTKPDYLEVLEKTTYRF

binding [1]: no binding
B4: HA-tagged human Slitrk1 (pDisplay-HA-hSlitrk1) (protein, UniProt Q96PX8 18-696)
chain: NVTGDVCKEKICSCNEIEGDLHVDCEKKGFTSLQRFTAPTSQFYHLFLHGNSLTRLFPNEFANFYNAVSLHMENNGLHEIVPGAFLGLQLVKRLHINNNKIKSFRKQTFLGLDDLEYLQADFNLLRDIDPGAFQDLNKLEVLILNDNLISTLPANVFQYVPITHLDLRGNRLKTLPYEEVLEQIPGIAEILLEDNPWDCTCDLLSLKEWLENIPKNALIGRVVCEAPTRLQGKDLNETTEQDLCPLKNRVDSSLPAPPAQEETFAPGPLPTPFKTNGQEDHATPGSAPNGGTKIPGNWQIKIRPTAAIATGSSRNKPLANSLPCPGGCSCDHIPGSGLKMNCNNRNVSSLADLKPKLSNVQELFLRDNKIHSIRKSHFVDYKNLILLDLGNNNIATVENNTFKNLLDLRWLYMDSNYLDTLSREKFAGLQNLEYLNVEYNAIQLILPGTFNAMPKLRILILNNNLLRSLPVDVFAGVSLSKLSLHNNYFMYLPVAGVLDQLTSIIQIDLHGNPWECSCTIVPFKQWAERLGSEVLMSDLKCETPVNFFRKDFMLLSNDEICPQLYARISPTLTSHSKNSTGLAETGTHSNSYLDTSRVSISVLVPGLLLVFVTSAFTVVGMLVFILRNRKRSKRRDANSSASEINSLQTVCDSSYWHNGPYNADGAHRVYDCGSHSLSD

binding [1]: no binding
B5: HA-tagged human Slitrk2 ΔPBM (pDisplay-HA-hSlitrk2 ΔPBM) (domain or fragment, UniProt Q9H156 22-841)
chain: RKTAKDICKIRCLCEEKENVLNINCENKGFTTVSLLQPPQYRIYQLFLNGNLLTRLYPNEFVNYSNAVTLHLGNNGLQEIRTGAFSGLKTLKRLHLNNNKLEILREDTFLGLESLEYLQADYNYISAIEAGAFSKLNKLKVLILNDNLLLSLPSNVFRFVLLTHLDLRGNRLKVMPFAGVLEHIGGIMEIQLEENPWNCTCDLLPLKAWLDTITVFVGEIVCETPFRLHGKDVTQLTRQDLCPRKSASDSSQRGSHADTHVQRLSPTMNPALNPTRAPKASRPPKMRNRPTPRVTVSKDRQSFGPIMVYQTKSPVPLTCPSSCVCTSQSSDNGLNVNCQERKFTNISDLQPKPTSPKKLYLTGNYLQTVYKNDLLEYSSLDLLHLGNNRIAVIQEGAFTNLTSLRRLYLNGNYLEVLYPSMFDGLQSLQYLYLEYNVIKEIKPLTFDALINLQLLFLNNNLLRSLPDNIFGGTALTRLNLRNNHFSHLPVKGVLDQLPAFIQIDLQENPWDCTCDIMGLKDWTEHANSPVIINEVTCESPAKHAGEILKFLGREAICPDSPNLSDGTVLSMNHNTDTPRSLSVSPSSYPELHTEVPLSVLILGLLVVFILSVCFGAGLFVFVLKRRKGVPSVPRNTNNLDVSSFQLQYGSYNTETHDKTDGHVYNYIPPPVGQMCQNPIYMQKEGDPVAYYRNLQEFSYSNLEEKKEEPATPAYTISATELLEKQATPREPELLYQNIAERVKELPSAGLVHYNFCTLPKRQFAPSYESRRQNQDRINKTVLYGTPRKCFVGQSKPNHPLLQAKPQSEPDYLEVLEKQTA

binding [1]: binds | binding [2]: binds
B6: HA-tagged human Slitrk2 wild type (pDisplay-HA-hSlitrk2) (protein, UniProt Q9H156 22-845)
chain: RKTAKDICKIRCLCEEKENVLNINCENKGFTTVSLLQPPQYRIYQLFLNGNLLTRLYPNEFVNYSNAVTLHLGNNGLQEIRTGAFSGLKTLKRLHLNNNKLEILREDTFLGLESLEYLQADYNYISAIEAGAFSKLNKLKVLILNDNLLLSLPSNVFRFVLLTHLDLRGNRLKVMPFAGVLEHIGGIMEIQLEENPWNCTCDLLPLKAWLDTITVFVGEIVCETPFRLHGKDVTQLTRQDLCPRKSASDSSQRGSHADTHVQRLSPTMNPALNPTRAPKASRPPKMRNRPTPRVTVSKDRQSFGPIMVYQTKSPVPLTCPSSCVCTSQSSDNGLNVNCQERKFTNISDLQPKPTSPKKLYLTGNYLQTVYKNDLLEYSSLDLLHLGNNRIAVIQEGAFTNLTSLRRLYLNGNYLEVLYPSMFDGLQSLQYLYLEYNVIKEIKPLTFDALINLQLLFLNNNLLRSLPDNIFGGTALTRLNLRNNHFSHLPVKGVLDQLPAFIQIDLQENPWDCTCDIMGLKDWTEHANSPVIINEVTCESPAKHAGEILKFLGREAICPDSPNLSDGTVLSMNHNTDTPRSLSVSPSSYPELHTEVPLSVLILGLLVVFILSVCFGAGLFVFVLKRRKGVPSVPRNTNNLDVSSFQLQYGSYNTETHDKTDGHVYNYIPPPVGQMCQNPIYMQKEGDPVAYYRNLQEFSYSNLEEKKEEPATPAYTISATELLEKQATPREPELLYQNIAERVKELPSAGLVHYNFCTLPKRQFAPSYESRRQNQDRINKTVLYGTPRKCFVGQSKPNHPLLQAKPQSEPDYLEVLEKQTAISQL
